Reference: US20260200947A1, “FUSED CYCLIC COMPOUNDS AND USE THEREOF” (Jacobio Pharmaceuticals Co., Ltd., priority 2022, published 2026)

Row | SMILES | IC50 (SW620 cells (K-Ras G12V)) | IC50 (AGS cells (K-Ras G12D))
1 | C#Cc1c(F)ccc2cc(N)cc(-c3nc4c5c(nc(OC[C@@]67CCCN6C[C@H](F)C7)nc5c3F)N3[C@@H](C)CCO[C@H](C)[C@H]3N4C)c12 [Compound 122] | 24.8 nM | –
2 | C#Cc1c(F)ccc2cc(N)cc(-c3nc4c5c(nc(O[C@@H](C)[C@@H]6[C@@H](OC)CCN6C)nc5c3F)N3CCCOC[C@H]3N4C)c12 [Compound 162] | – | 93.9 nM
3 | C#Cc1c(F)ccc2cc(N)cc(-c3nc4c5c(nc(OC[C@@]67CCCN6C[C@H](F)C7)nc5c3F)N3C(COCC[C@@H]3C)C4=C)c12 (stereo partly drawn) [Compound 128] | – | 3.43 nM
